Measured values: PubChem BioAssay (NCI)
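Method: 48-hour compound exposure of cells in 96-well plates, five concentrations, linear interpolation of endpoints. Abbreviation: GI50, concentration required for 50% inhibition of growth. TGI is the concentration that stops growth completely.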

Tested on: NCI-H322M lung
Assay: growth of human tumour cells (NCI), 48 h

Structure (SMILES) | GI50 [µM] | TGI [µM]
COP(=O)(CC(F)(F)C(F)(F)F)OC | 16.6 | 33.1
Cn1cc(-c2cc3nc(-c4c[nH]c5ccc(Br)cc45)cc(N)n3n2)c2ccccc21 | 1.36 | 2.96
COc1ccc2c(c1)c(-c1cc3nc(-c4cn(C)c5ncccc45)cc(N)n3n1)cn2C | 2.92 | 13.2
